# Measured values as given in PubChem BioAssay AID488969 (Vanderbilt High Throughput Screening Facility, 2010).
# In all, about 110,000 compounds were measured (“z-score”: median about -0.1, highest 2% from about 2 on). Some of the results follow. Active and inactive are the calls of the source.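 How the source made its calls: active means z-score in the third read window above 3 or below -3; inactive means the rest.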
# Biological target: Metabotropic glutamate receptor 8 (Rattus norvegicus) (UniProt P70579)
# Assay: rat mGluR8 modulators via GIRK flux, primary screen, cell-based, thallium flux, HTS (AID 488969)
# Conditions: HEK293 rat mGluR8, GIRK (G protein-gated inwardly rectifying potassium channel) thallium flux, FluoZin2; at 10 µM; stronger effect = higher value; submaximal glutamate (EC20) added with thallium
# UniProt P70579, sequence (P70579 whole entry, looked up): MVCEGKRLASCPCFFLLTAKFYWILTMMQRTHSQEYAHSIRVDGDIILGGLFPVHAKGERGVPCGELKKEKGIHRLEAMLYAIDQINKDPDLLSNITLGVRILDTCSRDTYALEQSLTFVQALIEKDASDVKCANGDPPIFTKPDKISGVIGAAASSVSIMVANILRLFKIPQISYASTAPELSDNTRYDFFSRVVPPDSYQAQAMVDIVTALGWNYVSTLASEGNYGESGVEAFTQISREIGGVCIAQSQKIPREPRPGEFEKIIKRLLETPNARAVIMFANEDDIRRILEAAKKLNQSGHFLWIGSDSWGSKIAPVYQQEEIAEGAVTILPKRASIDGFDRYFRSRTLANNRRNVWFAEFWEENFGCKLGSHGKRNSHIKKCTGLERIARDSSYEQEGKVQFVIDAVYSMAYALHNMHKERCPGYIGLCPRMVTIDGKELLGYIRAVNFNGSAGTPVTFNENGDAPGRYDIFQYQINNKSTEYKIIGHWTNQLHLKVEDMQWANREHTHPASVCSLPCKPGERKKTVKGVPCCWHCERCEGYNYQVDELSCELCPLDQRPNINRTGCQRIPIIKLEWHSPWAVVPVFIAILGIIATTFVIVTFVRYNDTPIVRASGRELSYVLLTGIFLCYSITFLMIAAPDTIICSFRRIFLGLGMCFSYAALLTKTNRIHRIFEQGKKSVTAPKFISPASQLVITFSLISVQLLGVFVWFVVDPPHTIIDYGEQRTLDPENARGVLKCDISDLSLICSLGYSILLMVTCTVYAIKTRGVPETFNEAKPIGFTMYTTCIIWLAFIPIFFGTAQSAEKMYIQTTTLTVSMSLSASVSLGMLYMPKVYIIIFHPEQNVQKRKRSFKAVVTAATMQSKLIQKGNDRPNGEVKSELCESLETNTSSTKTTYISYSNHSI
row,Compound,z-score
1,CSc1nc(C)cc(SC(C(C)=O)C(=O)Nc2ccccc2)n1 (stereo unspecified),-0.502
2,COc1cc(CSc2ncn[nH]2)c(OC)cc1CSc1ncn[nH]1,-0.214
3,Cc1ccc(-c2nc3ccccc3s2)cc1NC(=O)c1ccc2c(c1)OCO2,-0.221
4,CCOC(=O)C(NC(=O)c1ccc(Cl)cc1Cl)(Nc1ccc(C)cc1)C(F)(F)F (stereo unspecified),-0.12
5,COc1ccc(-c2nnn(CC(=O)N(Cc3ccccc3Cl)C(C(=O)NCC3CCCO3)c3ccco3)n2)cc1 (stereo unspecified),-0.253
6,CC1CN=C(N(C(=O)Nc2ccccc2)C(C)C)S1 (stereo unspecified),0.0225
7,COc1cc(C)c(Cl)cc1S(=O)(=O)NCCN1CCOCC1,0.382
8,O=C(NCCN1CCOCC1)c1cc(S(=O)(=O)NCCCN2CCCC2=O)ccc1Cl,0.23
9,COc1ccc(OC)c(C2=NOC(C(=O)NCc3ccco3)C2)c1 (stereo unspecified),-0.014
10,O=C(O)CCN1CC2([N+](=O)[O-])C=CC(=O)C([N+](=O)[O-])(C1)C2CC(=O)c1ccccc1 (stereo unspecified),-0.227
11,CCC(c1nnnn1C1CCCCC1)N1CCN(C2CCCC2)CC1 (stereo unspecified),0.000677
12,CC(C)N1CC2(c3ccccc3)CN(C(C)C)CC(c3ccccc3)(C1)C2=O,-0.43
13,O=C(Nc1ccnc(-c2cccnc2)n1)c1ccc(Cl)cc1,-0.11
14,CCCN1C(=O)c2cc(C(=O)NCCc3cccc(C)c3)ccc2C1O (stereo unspecified),-0.0719
15,O=C(CNC1CCCCCC1)Nc1ccc(N2CCCC2)cc1,2.66
16,O=C(COc1cccc(Cl)c1)N/N=C\c1cc2ccccc2nc1Cl,0.267
17,COCC(=O)N(Cc1cc2cc(OC)ccc2[nH]c1=O)c1ccccc1OC,-0.0574
18,O=C(NNC(=O)C1CC2CCC1C2)c1sc2ccccc2c1Cl (stereo unspecified),-0.16
19,COC(=O)CSC1=C(C#N)C(c2ccccc2)CC(=O)N1 (stereo unspecified),-0.164
20,Cc1ccc(S(=O)(=O)Nc2ccccc2C=Nc2cccc(C)c2C)cc1,-0.0798
21,Cc1cccc(NC(=O)C2(C)CC3c4ccccc4C2c2ccccc23)c1 (stereo unspecified),-0.269
22,CCn1cc(C(=O)O)c(=O)c2cc(F)c(N3CCN(C(=O)Nc4ccccc4)CC3)cc21,-0.217
23,CCN1CN=C(NS(=O)(=O)c2ccc(C)cc2)NC1,-0.355
24,CCCCOC(=O)Nc1nc2ccccc2s1,-0.291

row,Compound,z-score
1,Cc1ccc(-n2c(CCc3ccccc3)nnc2SCC(=O)NCc2ccccc2)cc1C,0.651
2,CC(C)N(C)CCOC(=O)c1ccccc1Br,0.0918
3,CN(C)c1nc(Oc2ccc(=O)n(C)n2)nc(N2CCOCC2)n1,0.191
4,O=C(Nc1ncc(Cc2ccccc2)s1)C1COc2ccccc2O1 (stereo unspecified),0.295
5,Cc1cc(C(=O)CSc2nnc3ccccn23)c(C)n1-c1ccccc1,0.237
6,COc1ccc(-c2nc(C#N)c(NCC3CCCO3)o2)cc1 (stereo unspecified),-0.0444
7,CCOC(=O)c1[nH]c(=O)[nH]c1CSCCO,0.124
8,COc1ccc2nc(/N=C/c3c(C)[nH]n(-c4ccc(C)cc4)c3=O)sc2c1,active: 9.39
9,O=C(NC1CCCCC1)c1ccccc1-c1ccccc1,-0.176
10,COc1ccc(Nc2oc(COc3ccc(C)cc3)nc2C#N)cc1,-0.083
11,Cc1nc(C)c(/C(O)=C/c2nc3ccccc3oc2=O)s1,0.104
12,COc1ccc(C(=O)ON=C2CCN(c3ccc([N+](=O)[O-])cc3)CC2)cc1,-0.868
13,O=C(CSc1nnnn1C1CCCC1)N1CCN(C(=O)c2ccco2)CC1,-0.462
14,Cc1ccc(S(=O)(=O)c2c(C)nn(C(C)(C)C)c2OC(=O)c2ccco2)cc1,-0.668
15,O=C(Oc1ccc(N2C(=O)CCC2=O)cc1)c1ccco1,-0.374
16,CCOC(=O)N1CCN(C(=O)COc2cccc3c2CCN(Cc2ccc(F)cc2)C3=O)CC1,-0.164
17,COc1cccc(OCCSc2nc(N)cc(N)n2)c1,-0.00897
18,CCc1[nH]nc2c1C1(C(=O)N(Cc3ccccc3)c3ccccc31)C(C#N)=C(N)O2 (stereo unspecified),1.98
19,COc1cc(CNCc2ccccn2)ccc1OCC(=O)NC1CCCCC1,-0.253
20,O=C(Cc1c(Sc2ccccc2)c2ccccc2n1Cc1ccccc1)NCCO,0.12
21,N#Cc1ccsc1NC(=O)CSc1ncnc2ccccc12,1.01
22,CN1/C(=C\C=Nc2ccc3ccccc3c2)C(C)(C)c2ccccc21,-1.01
23,COc1cccc(-n2c(CN3CCN(Cc4ccccc4)CC3)nc3ccc([N+](=O)[O-])cc3c2=O)c1,0.48
24,O=C(CNS(=O)(=O)c1ccc(Br)cc1)N1CCN(c2ccc(F)cc2)CC1,-0.0366

row,Compound,z-score
1,O=C(COC(=O)c1ccc2ccccc2c1)Nc1ncc(C(F)(F)F)cc1Cl,-0.0886
2,O=C(NNC(=O)c1cccnc1SCc1cccc([N+](=O)[O-])c1)c1ccc(F)cc1,0.33
3,O=S(=O)(c1ccc(Cl)cc1)N1CCC(N2CCOCC2)CC1,0.0841
4,CC(=O)c1cccc(NC(=O)CSc2nnc(-c3ccc(S(=O)(=O)N4CCCC4)cc3)o2)c1,-0.553
5,CC(=O)Nc1sc(N/N=C\c2ccccc2F)nc1-c1cccs1,-0.726
6,C=CCNC(=O)CCCCC(=O)NCC=C,-0.0942
7,CN(C)S(=O)(=O)c1cc(C(=O)NCC2CCCO2)c(Cl)cc1Cl (stereo unspecified),0.101
8,CCSc1cc(C)nc2c(-c3ccccc3)c(C)nn12,-0.471
9,COCC(=O)Nc1ccccc1C(=O)NC(C)C,0.383
10,C#CCOC(=O)c1ccccc1C(=O)OCC#C,-0.173
11,CCOC(=O)c1c(CN(CC)CC)oc2cc(Br)c(O)cc12,-1.27
12,COc1ccc2nc(SC(C(=O)c3ccccc3)c3ccccc3)nc(C)c2c1 (stereo unspecified),0.574
13,Cc1nc(SCC(=O)c2cccc([N+](=O)[O-])c2)n[nH]1,-0.159
14,Cc1cc(C)n(C(=O)CCC2COc3ccccc3O2)n1 (stereo unspecified),-0.753
15,COc1ccc(C)cc1NC(=O)CSc1nc(SC)ns1,-0.526
16,Cc1ccc(C(=O)NNC(=O)C2CCCN(c3ncccn3)C2)cc1 (stereo unspecified),0.36
17,COC(=O)CCCCCCCCCCN1CCCCC1,-1.49
18,Cn1c(=O)c2c(nc(N3CCCCCC3)n2CC(=O)c2ccccc2)n(C)c1=O,-0.257
19,CCCCCCC(=O)Nc1nc(C)c(-c2csc(Nc3cccc(OC)c3)n2)s1,-0.0614
20,O=C(N/N=C1\CCc2ccccc21)c1ccccc1O,0.0387
21,NC(=O)NC(=O)CSc1nc(C2CCCCC2)n(-c2ccccc2)n1,-0.264
22,O=C(Nc1nc2ccccc2[nH]1)c1ccc(Cl)c(S(=O)(=O)N2CCCC2)c1,-0.459
23,COC(=O)c1ccc(Oc2nc(Nc3ccc(F)cc3)nc(N3CCCC3)n2)cc1,0.419
